Results published in PubChem BioAssay AID1346378 (National Center for Advancing Translational Sciences (NCATS), 2018).
About 540 (0.13%) of roughly 420,000 compounds were called active. Inconclusive means that the source gave no clear call. Such entries were picked first, then a sample of the others. Cut-off read from the data, not from the text of the source: active = activity change below about -50%; inconclusive = mostly about -30% to -49%; inactive = weaker than that. A structure can be active in one record and inactive in another.

These molecules were tested against Phosphatidylinositol 4-kinase type 2-alpha (Homo sapiens) (UniProt Q9BTU6) (assay: qHTS for small molecular inhibitors of PI4K2A). Details: purified PI4K2A, ADP-Glo luminescence, 1 h; at 76.9 µM, hits give low values.
Procedure, shortened: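 PI4K2A activity was measured by ADP-Glo luminescence: enzyme (4 ug/mL stock) and phosphatidylinositol (1.2 mM stock) in Tris pH 7.5/MgCl2/EGTA/Triton X-100 buffer were reacted with ATP (300 microM stock) for one hour at ambient temperature.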
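Note: -100% = wells without enzyme as full effect.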

Chain of UniProt Q9BTU6 (Q9BTU6 whole entry, looked up): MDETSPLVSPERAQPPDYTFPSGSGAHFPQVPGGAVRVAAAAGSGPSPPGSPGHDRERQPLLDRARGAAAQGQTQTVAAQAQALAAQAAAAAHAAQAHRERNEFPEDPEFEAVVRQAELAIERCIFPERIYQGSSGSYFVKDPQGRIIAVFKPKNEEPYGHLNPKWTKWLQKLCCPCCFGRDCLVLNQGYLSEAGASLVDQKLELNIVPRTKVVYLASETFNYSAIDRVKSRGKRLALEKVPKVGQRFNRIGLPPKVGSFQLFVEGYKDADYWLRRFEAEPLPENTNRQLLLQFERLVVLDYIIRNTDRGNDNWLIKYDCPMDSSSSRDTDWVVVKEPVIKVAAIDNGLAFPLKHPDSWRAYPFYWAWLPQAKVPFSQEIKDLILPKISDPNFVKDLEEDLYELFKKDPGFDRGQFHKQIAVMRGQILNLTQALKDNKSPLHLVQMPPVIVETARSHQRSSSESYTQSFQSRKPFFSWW

Activity change, negative = inhibition, inconclusive:
Cc1nnc(SCC2=C(C(=O)O)N3C(=O)C(NC(=O)Cn4nc(C(F)F)c(Cl)c4C)C3SC2)s1 (centres undefined) -35.9%, CC1=NN(c2ccccc2)C(=O)C1 -34.4%, O=C(O)CCC(=O)NNC(=O)c1cccc(Cl)c1 -37.6%, Cc1ccc(-n2cnc3c(sc4nccc(N(C)C)c43)c2=O)cc1 -39.5%, CCCCCNC(=O)C(c1ccccc1F)n1c(=O)c(-c2ccco2)nc2ccccc21 (centres undefined) -30.8%, CN1C(=O)/C(=C/c2ccc(C(=O)Nc3ccc(O)cc3C(=O)O)cc2)SC1=S -39.4%, Cc1cnnn1-c1ccc(C(=O)CCl)cc1 -46.8%, CNc1nc(-c2ccccn2)nnc1-c1ccccc1 -36.3%, Cc1ccc(Cl)cc1N1CCN(S(=O)(=O)c2ccc3c(c2)NC(=O)C(C)C(=O)N3)CC1 (centres undefined) -32.9%, COc1ccccc1NC(=O)COC(=O)c1[nH]c(=O)[nH]c(=O)c1N -36.9%, COc1cccc(N=Nc2ccc(O)c3ncccc23)c1 -35.4%, N#CC(C#N)=c1ccc2c(c1)N1C3=C(CCCC3)CC3CCCCC31N=2 (centres undefined) -36.9%, O=C(CSc1nnc(-c2ccco2)o1)c1ccc[nH]1 -32.1%, CC1=NN(c2ccc(C(=O)O)c(N)c2)C(=O)C1 -38.6%, Nc1ncnc2c1ncn2[C@@H]1O[C@H](CO)[C@@H](O)[C@H]1O -32.7%, CCCC(=O)N(c1ccc2oc(=O)sc2c1)S(=O)(=O)c1cccs1 -33.4%, O=c1[nH]c(/C=C\c2cccc(O)c2)nc(O)c1[N+](=O)[O-] -36.5%, Clc1ccccc1/C=C/c1nc(-c2ccccn2)no1 -45.7%, O=C(Nc1ccc2c(c1)OCO2)Nc1ccccc1F -35.1%, COc1ccccc1Cn1[nH]nnc1=S -32.6%, Cc1cc2ncc(-c3cccs3)nc2cc1C -42.1%, c1ccc2c(c1)COc1c3cc4c(cc3nn1-2)OCO4 -40.7%

Activity change, negative = inhibition, inactive:
CCOC(=O)N1CCN(C(=O)c2ccc(S(=O)(=O)Nc3ccc(C)cc3)cc2)CC1 1.17%, Cc1c(N2C(=O)c3ccc(Br)cc3C2=O)c(=O)n(-c2ccccc2)n1C -0.712%, COc1cc(/C=N/NC(=O)CN(Cc2ccco2)S(=O)(=O)c2ccccc2)ccc1O 2.76%, COP1(=O)CCOCC[C@H](CC(C)C)NC(=O)[C@H](CC(C)C)N1 (some centres undefined) -5.99%, Cc1cc(=O)oc2c(CN3CCCC3)c(O)ccc12 -1.08%, CCN(CC)c1ccc(/C=N/Nc2ccccc2)c(O)c1 -2.69%, Cc1cc(C(=O)COC(=O)/C=C/c2cccc(F)c2)c(C)n1C 2.19%, CC(=O)O[C@@]12CO[C@@H]1C[C@H](O)[C@@]1(C)C(=O)[C@H](O)C3=C(C)[C@@H](OC(=O)[C@H](O)[C@@H](NC(=O)OC(C)(C)C)c4ccccc4)C[C@@](O)([C@@H](OC(=O)c4ccccc4)[C@H]21)C3(C)C -1.3%, CCOC(=O)c1oc2ccccc2c1NC(=O)CCl -1.01%, O=C(O)c1ccc(Nc2nc(-c3ccccc3)nc3ccccc23)cc1 -1.29%, COc1ccc(CNC(=O)Cn2nc([N+](=O)[O-])c(Br)c2C)cc1 0.498%

Activity change, negative = inhibition, active:
Cn1cccc1/C=C1\CCc2ccccc2C1=O -55.9%, O=C(NCc1ccccc1)c1ccc2nc(-c3ccco3)c(-c3ccco3)nc2c1 -66.3%, N#Cc1c(NC(=O)c2ccc(Br)o2)n(-c2ccccc2)c2nc3ccccc3nc12 -51.6%, C(=C\c1nc2ccccc2[nH]1)/c1ccccc1 -55.4%, Oc1ccc(NCc2ccccc2OCc2ccc(Cl)cc2)cc1 -53.4%, Cn1nnc(-c2ccc(OCc3ccccc3F)cc2)n1 -56.3%, CC[C@]12c3[nH]c4cc(-c5ccco5)ccc4c3CCN1C(=O)[C@@H](CC(=O)NCCC1=CCCCC1)C[C@@H]2C(=O)N1CCN(C(=O)c2ccco2)CC1 -53.4%, COc1ccc(-c2cc(C(F)(F)F)c3c(n2)sc2c(O)cc(=O)[nH]c23)c(OC)c1 -56%, COc1ccccc1N1CCN(CCN(C(=O)C2CCCCC2)c2ccccn2)CC1 -65.4%, O=C(c1ccc2c3n(nc2c1)-c1ccccc1CO3)N1CCOCC1 -55.1%, CC(=O)C1=C(C)OC2(O)c3ccccc3C(=O)C12O (centres undefined) -53.8%
